PMC4336329 (PLoS ONE, 2015)
Hit rate of the full screen: of about 310,000 compounds, about 2,200 (0.71%) showed an effect of 50% or more. The effect is printed as a negative number. Some of the results follow.

The compounds below were run against human ether-à-go-go-related gene (hERG) potassium channel (human, UniProt Q12809) (assay: primary screen, population patch clamp on CHO cells stably expressing hERG).
Chain of human ether-à-go-go-related gene (hERG) potassium channel (Q12809 whole entry, looked up): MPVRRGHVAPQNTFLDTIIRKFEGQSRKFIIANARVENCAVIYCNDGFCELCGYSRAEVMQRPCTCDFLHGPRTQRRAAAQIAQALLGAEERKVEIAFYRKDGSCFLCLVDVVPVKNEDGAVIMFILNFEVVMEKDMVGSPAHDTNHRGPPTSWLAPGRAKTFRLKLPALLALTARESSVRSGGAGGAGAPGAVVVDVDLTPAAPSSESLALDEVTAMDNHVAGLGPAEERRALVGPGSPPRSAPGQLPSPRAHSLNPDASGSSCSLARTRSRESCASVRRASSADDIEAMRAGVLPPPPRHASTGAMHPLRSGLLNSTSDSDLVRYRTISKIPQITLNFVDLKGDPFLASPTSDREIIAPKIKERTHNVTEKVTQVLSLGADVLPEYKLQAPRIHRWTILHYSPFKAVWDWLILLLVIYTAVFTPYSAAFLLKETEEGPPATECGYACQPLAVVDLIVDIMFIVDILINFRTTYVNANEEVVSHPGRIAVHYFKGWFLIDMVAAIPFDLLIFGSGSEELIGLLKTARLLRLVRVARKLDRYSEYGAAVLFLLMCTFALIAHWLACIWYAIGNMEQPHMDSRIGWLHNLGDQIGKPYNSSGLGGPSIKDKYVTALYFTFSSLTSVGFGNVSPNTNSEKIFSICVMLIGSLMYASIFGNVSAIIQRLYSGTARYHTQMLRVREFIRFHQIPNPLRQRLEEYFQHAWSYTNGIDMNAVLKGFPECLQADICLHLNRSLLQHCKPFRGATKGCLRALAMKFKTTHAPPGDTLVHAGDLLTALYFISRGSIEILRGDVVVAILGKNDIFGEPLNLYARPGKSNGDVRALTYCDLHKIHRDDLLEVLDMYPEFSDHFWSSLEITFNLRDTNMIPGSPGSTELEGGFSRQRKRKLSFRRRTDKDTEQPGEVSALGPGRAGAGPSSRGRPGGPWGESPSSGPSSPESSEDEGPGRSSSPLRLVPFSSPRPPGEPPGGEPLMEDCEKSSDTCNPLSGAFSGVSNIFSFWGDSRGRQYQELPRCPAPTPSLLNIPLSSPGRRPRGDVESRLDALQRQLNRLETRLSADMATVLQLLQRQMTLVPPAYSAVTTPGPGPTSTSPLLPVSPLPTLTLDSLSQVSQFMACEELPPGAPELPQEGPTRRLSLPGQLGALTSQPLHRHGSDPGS
With `OCC1(Cc2ccc(Cl)cc2)CCN(Cc2ccc(F)c(F)c2)CC1` the “hERG current change (%, negative = inhibition) at 1uM” value was -4.29%.
For `CC(/C=C/C=C/c1ccccc1)=N/NC(=O)c1ccc2c(c1)OCCO2`, the “hERG current change (%, negative = inhibition) at 1uM” value was 1.83%.
`CC(C)c1nc2scc(-c3ccc(Cl)cc3)c2c(=O)n1N` was tested, and the “hERG current change (%, negative = inhibition) at 1uM” value was 3.75%.
In the case of `Cc1ccc(N(CC(=O)NCC2CCCO2)C(=O)Cn2nnc(-c3cccs3)n2)cc1` (stereo not shown), the “hERG current change (%, negative = inhibition) at 1uM” value is reported as 2.07%.
With `CCOc1ccc(NS(=O)(=O)c2cc(NC(=O)c3cccc(C)c3)ccc2Cl)cc1` the “hERG current change (%, negative = inhibition) at 1uM” value was 14.1%.
In the case of `COC(=O)c1cccc(COC(=O)c2ccc(CS(=O)(=O)c3ccc(C)cc3)cc2)c1`, the “hERG current change (%, negative = inhibition) at 1uM” value is reported as 8.41%.
For `O=C(NC1CCCC1)C(c1ccccn1)N(Cc1ccccc1F)C(=O)c1csnn1` (stereo not shown), the “hERG current change (%, negative = inhibition) at 1uM” value was 10.7%.
For `CC(C)(C)NC(=O)CN(C(=O)CNC(=O)c1cccs1)c1ccccc1F`, the “hERG current change (%, negative = inhibition) at 1uM” value was 5.78%.
With `S=c1[nH]nc(Cc2ccc(Cl)cc2)o1` the “hERG current change (%, negative = inhibition) at 1uM” value was 15.6%.
In the case of `O=C1NCCCC1C(=O)N/N=C/c1ccccc1` (stereo not shown), the “hERG current change (%, negative = inhibition) at 1uM” value is reported as -5.13%.
`Cl.O=C(CNC1=NCCC1)c1ccc2c(c1)OCCO2` was tested, and the “hERG current change (%, negative = inhibition) at 1uM” value was 0.754%.
`Cc1c(C(=O)NC2=NCCS2)cccc1[N+](=O)[O-]` was tested, and the “hERG current change (%, negative = inhibition) at 1uM” value was 9.35%.
For `Cc1cc(C)nc(N2CCCC(C(=O)NCC(c3ccccc3)c3ccccc3)C2)n1` (stereo not shown), the “hERG current change (%, negative = inhibition) at 1uM” value was 7.6%.
In the case of `CCN1C(=O)/C(=C/c2ccc(C)s2)NC1=S`, the “hERG current change (%, negative = inhibition) at 1uM” value is reported as 7.53%.
`O=C(NCCc1ccc(F)cc1)c1coc(=O)c(Br)c1` was tested, and the “hERG current change (%, negative = inhibition) at 1uM” value was 13.8%.
`COc1ccc(CNC(=O)c2ccccc2SC)cc1` was tested, and the “hERG current change (%, negative = inhibition) at 1uM” value was 7.29%.
In the case of `CCOc1ccc(NC(=S)NCc2nc3ccccc3[nH]2)cc1`, the “hERG current change (%, negative = inhibition) at 1uM” value is reported as -27.8%.
For `CCOc1cc(S(=O)(=O)N2CCC(C(N)=O)CC2)ccc1F`, the “hERG current change (%, negative = inhibition) at 1uM” value was -8.34%.
`Cc1ccc(S(=O)(=O)N(CC(O)CN2C(=O)NC(C)(C)C2=O)c2cccc(C)c2)cc1` (stereo not shown) was tested, and the “hERG current change (%, negative = inhibition) at 1uM” value was 8.05%.
With `Cc1cccc(N2CCN(C(=S)Nc3ccc4nc5n(c(=O)c4c3)CCCCC5)CC2)c1C` the “hERG current change (%, negative = inhibition) at 1uM” value was 11.3%.
With `COCCCNC(=S)NNC(=O)Cn1nc(C)c(Br)c1C` the “hERG current change (%, negative = inhibition) at 1uM” value was 7.5%.
`COc1ccc(CN2C(=O)C(Cc3ccccc3)Nc3ncnc(N4CCCCC4)c32)cc1.O=C(O)C(F)(F)F` (stereo not shown) was tested, and the “hERG current change (%, negative = inhibition) at 1uM” value was 9.9%.
For `O=C(N/N=C\c1cc(Br)c(Br)o1)C1COc2ccccc2O1` (stereo not shown), the “hERG current change (%, negative = inhibition) at 1uM” value was 13.9%.
For `COCCn1c(COc2ccc(Cl)cc2)nnc1SCC(N)=O`, the “hERG current change (%, negative = inhibition) at 1uM” value was -2.07%.
For `COC(=O)c1ccc(=O)n(-c2ccc(OC)cc2)c1`, the “hERG current change (%, negative = inhibition) at 1uM” value was 17.9%.
With `Cc1ccc(S(=O)(=O)Nc2ccc(C(=O)OCC(=O)N(CCC#N)c3ccccc3)cc2)cc1C` the “hERG current change (%, negative = inhibition) at 1uM” value was 5.37%.
`N#CC1=C(N)N(c2ccccc2)C(=O)C1` was tested, and the “hERG current change (%, negative = inhibition) at 1uM” value was 13.8%.
`CCCN1C2CCCC1CC(NC(=O)c1ccccc1OC)C2` (stereo not shown) was tested, and the “hERG current change (%, negative = inhibition) at 1uM” value was 10.2%.
For `O=C1NC2(CCCCCC2)N=C1c1ccc(F)cc1`, the “hERG current change (%, negative = inhibition) at 1uM” value was 6.3%.
For `COc1cccc(CN(C)C(=O)COc2ccc(C(=O)c3ccc(Cl)cc3)cc2)c1OC`, the “hERG current change (%, negative = inhibition) at 1uM” value was 16.3%.
For `CCOc1ccc(-n2c(SCC(=O)NCc3ccco3)nnc2-c2c[nH]c3ccccc23)cc1`, the “hERG current change (%, negative = inhibition) at 1uM” value was 10.3%.
With `COc1ccccc1NC(=O)Cn1cnc2sc(C)c(S(=O)(=O)N3CCCCC3)c2c1=O` the “hERG current change (%, negative = inhibition) at 1uM” value was 7.65%.
In the case of `Cc1nn(Cc2ccccc2)c2ncccc12`, the “hERG current change (%, negative = inhibition) at 1uM” value is reported as 19%.
`O=C(c1ccc2nc[nH]c2c1)N1CCN(c2cccc(Cl)c2)CC1` was tested, and the “hERG current change (%, negative = inhibition) at 1uM” value was 9.92%.
`O=C1C(Cl)=C(N2CCCCCC2)C(=O)N1c1ccccc1Cl` was tested, and the “hERG current change (%, negative = inhibition) at 1uM” value was 8.34%.
With `O=C(O)CCCn1cc(NC(=O)c2ccc(Br)o2)cn1` the “hERG current change (%, negative = inhibition) at 1uM” value was 4.77%.
`CC(=O)Oc1ccc(C(c2ccc(OC(C)=O)cc2)c2ccccn2)cc1` was tested, and the “hERG current change (%, negative = inhibition) at 1uM” value was 8.98%.
`CC(C(=O)O)n1c(-c2ccn[nH]2)n[nH]c1=S` (stereo not shown) was tested, and the “hERG current change (%, negative = inhibition) at 1uM” value was 15.5%.
With `CN1CCN(C(=O)CCN2C(=O)c3ccccc3S2(=O)=O)CC1.Cl` the “hERG current change (%, negative = inhibition) at 1uM” value was 5.71%.
`CCOC(=O)c1cc2sc(C)cc2n1CC(=O)NCc1ccc(F)cc1` was tested, and the “hERG current change (%, negative = inhibition) at 1uM” value was 5.47%.
`Cc1cc(Cl)ccc1C(=O)C1CCCN(C(=O)c2cccnc2C)C1` (stereo not shown) was tested, and the “hERG current change (%, negative = inhibition) at 1uM” value was 0.0675%.
With `CC12CC3CC(C)(C1)CC(CN1CCOCC1)(C3)C2.Cl` the “hERG current change (%, negative = inhibition) at 1uM” value was 6.18%.
With `CC(C)C(=O)Nc1nc(-c2ccccc2)ns1` the “hERG current change (%, negative = inhibition) at 1uM” value was 1.47%.
In the case of `CCOC(=O)C1=NNC2(c3ccc(Cl)cc3)C(=O)N(c3cc(C)cc(C)c3)C(=O)C12` (stereo not shown), the “hERG current change (%, negative = inhibition) at 1uM” value is reported as -6.75%.
With `CCOc1ccc(N(C(=O)c2ccc3c(c2)OCO3)C2C=CS(=O)(=O)C2)cc1` (stereo not shown) the “hERG current change (%, negative = inhibition) at 1uM” value was 3.02%.
For `CS(=O)(=O)Nc1ccc(N2CCN(c3ccc(C(F)(F)F)cn3)CC2)nc1`, the “hERG current change (%, negative = inhibition) at 1uM” value was 12.1%.
In the case of `CS(=O)(=O)CC(=O)Nc1ccc2nc3n(c(=O)c2c1)CCCCC3`, the “hERG current change (%, negative = inhibition) at 1uM” value is reported as 14.7%.
In the case of `Cc1nc(-c2cc(-c3nc(-c4ccc(C(C)(C)C)cc4)no3)no2)cs1`, the “hERG current change (%, negative = inhibition) at 1uM” value is reported as 11.5%.
For `COC(=O)Nc1ccc(S(=O)(=O)N2CCC(C(=O)NC3CCCCC3)CC2)cc1`, the “hERG current change (%, negative = inhibition) at 1uM” value was 9.76%.
With `Cc1c(C(=O)N2CCN(C)CC2)oc2ccc(S(=O)(=O)N3CCOCC3)cc12` the “hERG current change (%, negative = inhibition) at 1uM” value was 12.9%.
With `CCOC(=O)c1cnc2ccc(C)cc2c1Sc1ccc(F)cc1` the “hERG current change (%, negative = inhibition) at 1uM” value was 6.06%.
For `CCOc1ccc(N(CC(=O)Nc2ccccc2C(=O)N2CCCC2)S(C)(=O)=O)cc1`, the “hERG current change (%, negative = inhibition) at 1uM” value was 10.4%.
In the case of `Cc1nc2cc(C(F)(F)F)ccc2n1C1CCN(Cc2nnnn2Cc2cccs2)CC1`, the “hERG current change (%, negative = inhibition) at 1uM” value is reported as -2.78%.
In the case of `C(=C\c1ccccc1)/CNn1cnnc1`, the “hERG current change (%, negative = inhibition) at 1uM” value is reported as 13.8%.
`COc1ccc(NC(=O)CSc2ccc3nnc(CCNC(=O)c4ccccc4)n3n2)cc1` was tested, and the “hERG current change (%, negative = inhibition) at 1uM” value was 16%.
With `Nc1nc(C(F)(F)F)c(Br)c(=O)n1N` the “hERG current change (%, negative = inhibition) at 1uM” value was 13.4%.
In the case of `Cc1c(NC(=O)CSc2nccn2C)c(=O)n(-c2ccccc2)n1C`, the “hERG current change (%, negative = inhibition) at 1uM” value is reported as 13.2%.
For `Nc1c(C(=O)NCc2ccccc2)nnn1Cc1ccccc1`, the “hERG current change (%, negative = inhibition) at 1uM” value was 18.4%.
